# Experimental data taken from US10407503 (University of California, dated 2019).
# How the values were obtained:
# [1] = target: T1, c-MET on the surface of Hcc827 or Hcc827-GR6 cells (human, UniProt P08581); assay: flow cytometry binding curve on cells (the sheet does not name them; paragraph 217: Hcc827 GR6 cell line)
# T1 construct: whole, on cells; The cells express the receptor endogenously, and MET is amplified in Hcc827-GR6; also called cell surface MET
# Method: (§1) The affinities of the cys-diabodies were evaluated by flow cytometry. Serial diluted cys-diabodies were incubated with Hcc827-GR6 cells at 4 degrees for 2 hours. The cys-diabodies were detected with 1/100 mouse anti-c-Myc antibody (Sigma, Cat# M4439) and stained with 1/100 PE or FITC conjugated goat anti mouse IgG polyclonal antibody (Jackson ImmunoResearch) in flow buffer.
# (§2) The affinity of these 3 cys-diabodies were evaluated by flow cytometry. The concentrations of the purified proteins were determined by their A280, measured with Nanodrop 2000 (Thermal Scientific), and their calculated extinction coefficient (ProtParam tool, expasy.org). The binding curve was fitted with one-site total binding model by GraphPad Prism.
# [2] = target: T1, c-MET on the surface of Hcc827 or …; assay: flow cytometry on Hcc827-GR6 cells, one-site total binding fit
# Method: as §1, §2
# [3] = target: T1, c-MET on the surface of Hcc827 or …; assay: phage flow cytometry on Hcc827-GR6 cells, bound phage detected with FITC anti-M13 antibody
# Method: For phage antibodies, flow cytometry was used to confirm their binding to c-MET expressing cells. Bacteria culture containing phage was concentrated 30 times into PBS according to published method (Antibody Engineering Methods and Protocols, Benny K. C. Lo). $2 \sim 5 \times 10^5$ c-MET positive Hcc827 or Hcc827-GR6 cells (Engelman et. al, Science, 2007) were incubated with 100 ul concentrated phage and 30 ul 4% milk-PBS on ice for 1 hour. Cells were then washed using flow buffer (PBS, 1% FBS, 2 mM EDTA), and the binding phage antibodies were detected by FITC conjugated anti-M13 monoclonal antibody (Santa Cruz Biotechnology, Cat# sc-53005 Fitc).
# T1 sequence (P08581 25-1390): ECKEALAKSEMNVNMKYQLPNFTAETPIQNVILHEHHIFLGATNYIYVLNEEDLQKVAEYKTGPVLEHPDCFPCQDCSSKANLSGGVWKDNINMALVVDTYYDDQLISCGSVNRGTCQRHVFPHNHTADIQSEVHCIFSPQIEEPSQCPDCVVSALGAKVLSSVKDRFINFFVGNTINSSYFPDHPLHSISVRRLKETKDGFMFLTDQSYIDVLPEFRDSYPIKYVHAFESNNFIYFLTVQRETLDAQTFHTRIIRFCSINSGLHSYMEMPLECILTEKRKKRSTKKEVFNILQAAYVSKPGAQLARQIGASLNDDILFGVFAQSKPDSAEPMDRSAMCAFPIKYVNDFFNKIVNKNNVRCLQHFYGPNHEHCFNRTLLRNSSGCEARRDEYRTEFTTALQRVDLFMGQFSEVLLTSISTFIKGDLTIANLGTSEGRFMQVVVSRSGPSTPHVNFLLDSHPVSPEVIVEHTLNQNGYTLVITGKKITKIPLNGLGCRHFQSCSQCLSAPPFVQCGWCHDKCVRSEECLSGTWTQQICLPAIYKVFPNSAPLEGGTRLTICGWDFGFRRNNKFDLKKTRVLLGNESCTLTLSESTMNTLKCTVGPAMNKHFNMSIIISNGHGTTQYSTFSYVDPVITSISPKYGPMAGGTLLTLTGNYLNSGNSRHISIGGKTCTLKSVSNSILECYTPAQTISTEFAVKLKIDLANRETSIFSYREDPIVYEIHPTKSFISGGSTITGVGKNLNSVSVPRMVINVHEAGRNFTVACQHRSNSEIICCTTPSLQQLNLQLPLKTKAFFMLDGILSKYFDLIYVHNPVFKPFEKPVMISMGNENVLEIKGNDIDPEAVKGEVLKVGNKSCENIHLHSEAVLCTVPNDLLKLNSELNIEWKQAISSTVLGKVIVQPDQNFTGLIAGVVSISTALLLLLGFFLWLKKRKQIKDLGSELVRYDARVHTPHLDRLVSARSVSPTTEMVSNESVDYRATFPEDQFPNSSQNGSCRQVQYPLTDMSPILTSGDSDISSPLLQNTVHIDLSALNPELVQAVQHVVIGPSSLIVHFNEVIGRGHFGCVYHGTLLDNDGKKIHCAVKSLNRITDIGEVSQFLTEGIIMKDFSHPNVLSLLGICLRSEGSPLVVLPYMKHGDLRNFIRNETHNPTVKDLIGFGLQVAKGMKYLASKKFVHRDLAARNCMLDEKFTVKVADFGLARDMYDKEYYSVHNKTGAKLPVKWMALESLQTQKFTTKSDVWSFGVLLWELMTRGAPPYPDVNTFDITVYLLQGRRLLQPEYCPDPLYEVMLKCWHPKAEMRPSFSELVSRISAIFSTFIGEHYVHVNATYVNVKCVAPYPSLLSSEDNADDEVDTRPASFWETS
Binder,Kd [1] [nM],Kd [2] [nM],binding result [3]
"H2 cys-diabody (other, Expressed in E. coli and purified through the His tag; also called H2 diabody) [about 100 residues not shown]EGGKWYYGMDVWGRGTLVTVSSGGGGGSSSELTQDPAVSVALGQTVRITCQGDSLRSYYTNWFQQKPGQAPLLVVYAKNKRPSGIPDRFSGSGSGDTASLTITGAQAEDEADYYCNSRDSSGNYLFAAGTKLTVLGAAAEQKLISEEDLNGAAHHHHHHC",0.6,0.61,
"H2 ScFv antibody (phage-displayed) (scFv, The fusion to the phage coat protein is not described) scFv: [about 100 residues not shown]EGGKWYYGMDVWGRGTLVTVSSGGGGGSGGGGSGGGGSSSELTQDPAVSVALGQTVRITCQGDSLRSYYTNWFQQKPGQAPLLVVYAKNKRPSGIPDRFSGSGSGDTASLTITGAQAEDEADYYCNSRDSSGNYLFAAGTKLTVLG",,,binds
